T1: RBFOX1 RRM (Homo sapiens, UniProt Q9NWB1 109-208)
T1 sequence: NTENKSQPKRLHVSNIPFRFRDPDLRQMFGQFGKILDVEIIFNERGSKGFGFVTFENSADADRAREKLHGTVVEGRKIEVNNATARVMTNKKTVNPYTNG

B1: AUCAUCG (DNA:RNA)
RNA: GGGAGACCGGAAUUCAGAUUGUCCAUCAUCGUUAAAUCCCGUCGUAGCCACCA
DNA 1: CAATCTGAATTCCGGTCTCCC
DNA 2: TGGTGGCTACGACGGGATT
B2: CACGAUA (DNA:RNA)
RNA: B1 RNA with A25C, U26A, A28G, U29A, C30U, G31A
DNA 1: CAATCTGAATTCCGGTCTCCC
DNA 2: TGGTGGCTACGACGGGATT
B3: GUCUUGG (DNA:RNA)
RNA: B1 RNA with A25G, A28U, C30G
DNA 1: CAATCTGAATTCCGGTCTCCC
DNA 2: TGGTGGCTACGACGGGATT
B4: AGAAAAU (DNA:RNA)
RNA: B1 RNA with U26G, C27A, U29A, C30A, G31U
DNA 1: CAATCTGAATTCCGGTCTCCC
DNA 2: TGGTGGCTACGACGGGATT
B5: AUAUCCU (DNA:RNA)
RNA: B1 RNA with C27A, A28U, U29C, G31U
DNA 1: CAATCTGAATTCCGGTCTCCC
DNA 2: TGGTGGCTACGACGGGATT
B6: AUAUGUG (DNA:RNA)
RNA: B1 RNA with C27A, A28U, U29G, C30U
DNA 1: CAATCTGAATTCCGGTCTCCC
DNA 2: TGGTGGCTACGACGGGATT
B7: CAAUGUU (DNA:RNA)
RNA: GGGAGACCGGAAUUCAGAUUGUCCCAAUGUUUUAAAUCCCGUCGUAGCCACCA
DNA 1: CAATCTGAATTCCGGTCTCCC
DNA 2: TGGTGGCTACGACGGGATT
B8: GUAUCAC (DNA:RNA)
RNA: B7 RNA with C25G, A26U, G29C, U30A, U31C
DNA 1: CAATCTGAATTCCGGTCTCCC
DNA 2: TGGTGGCTACGACGGGATT
B9: GUAUGCC (DNA:RNA)
RNA: B7 RNA with C25G, A26U, U30C, U31C
DNA 1: CAATCTGAATTCCGGTCTCCC
DNA 2: TGGTGGCTACGACGGGATT
B10: AUGUGAG (DNA:RNA)
RNA: B1 RNA with C27G, A28U, U29G, C30A
DNA 1: CAATCTGAATTCCGGTCTCCC
DNA 2: TGGTGGCTACGACGGGATT
B11: ACCUUGA (DNA:RNA)
RNA: B1 RNA with U26C, A28U, C30G, G31A
DNA 1: CAATCTGAATTCCGGTCTCCC
DNA 2: TGGTGGCTACGACGGGATT
B12: CGGUGUC (DNA:RNA)
RNA: B7 RNA with A26G, A27G, U31C
DNA 1: CAATCTGAATTCCGGTCTCCC
DNA 2: TGGTGGCTACGACGGGATT
B13: UCAACUG (DNA:RNA)
RNA: B1 RNA with A25U, U26C, C27A, U29C, C30U
DNA 1: CAATCTGAATTCCGGTCTCCC
DNA 2: TGGTGGCTACGACGGGATT
B14: AGGAAUG (DNA:RNA)
RNA: B1 RNA with U26G, C27G, U29A, C30U
DNA 1: CAATCTGAATTCCGGTCTCCC
DNA 2: TGGTGGCTACGACGGGATT
B15: GUAAGUA (DNA:RNA)
RNA: B7 RNA with C25G, A26U, U28A, U31A
DNA 1: CAATCTGAATTCCGGTCTCCC
DNA 2: TGGTGGCTACGACGGGATT
B16: AUAUCGG (DNA:RNA)
RNA: B1 RNA with C27A, A28U, U29C, C30G
DNA 1: CAATCTGAATTCCGGTCTCCC
DNA 2: TGGTGGCTACGACGGGATT
B17: AGCGGUA (DNA:RNA)
RNA: B1 RNA with U26G, A28G, U29G, C30U, G31A
DNA 1: CAATCTGAATTCCGGTCTCCC
DNA 2: TGGTGGCTACGACGGGATT
B18: CCCCGUG (DNA:RNA)
RNA: B7 RNA with A26C, A27C, U28C, U31G
DNA 1: CAATCTGAATTCCGGTCTCCC
DNA 2: TGGTGGCTACGACGGGATT
B19: UGAAUGU (DNA:RNA)
RNA: B1 RNA with A25U, U26G, C27A, C30G, G31U
DNA 1: CAATCTGAATTCCGGTCTCCC
DNA 2: TGGTGGCTACGACGGGATT
B20: CUCCCCU (DNA:RNA)
RNA: B1 RNA with A25C, A28C, U29C, G31U
DNA 1: CAATCTGAATTCCGGTCTCCC
DNA 2: TGGTGGCTACGACGGGATT
B21: CUGUCUU (DNA:RNA)
RNA: B7 RNA with A26U, A27G, G29C
DNA 1: CAATCTGAATTCCGGTCTCCC
DNA 2: TGGTGGCTACGACGGGATT
B22: GUAAAAC (DNA:RNA)
RNA: B1 RNA with A25G, C27A, U29A, C30A, G31C
DNA 1: CAATCTGAATTCCGGTCTCCC
DNA 2: TGGTGGCTACGACGGGATT
B23: CGCCGGA (DNA:RNA)
RNA: B7 RNA with A26G, A27C, U28C, U30G, U31A
DNA 1: CAATCTGAATTCCGGTCTCCC
DNA 2: TGGTGGCTACGACGGGATT
B24: CUACACG (DNA:RNA)
RNA: B1 RNA with A25C, C27A, A28C, U29A
DNA 1: CAATCTGAATTCCGGTCTCCC
DNA 2: TGGTGGCTACGACGGGATT
B25: UCUGGUU (DNA:RNA)
RNA: B7 RNA with C25U, A26C, A27U, U28G
DNA 1: CAATCTGAATTCCGGTCTCCC
DNA 2: TGGTGGCTACGACGGGATT
B26: CGGGGAG (DNA:RNA)
RNA: B7 RNA with A26G, A27G, U28G, U30A, U31G
DNA 1: CAATCTGAATTCCGGTCTCCC
DNA 2: TGGTGGCTACGACGGGATT
B27: GUUACGA (DNA:RNA)
RNA: B1 RNA with A25G, C27U, U29C, C30G, G31A
DNA 1: CAATCTGAATTCCGGTCTCCC
DNA 2: TGGTGGCTACGACGGGATT
B28: UGUUGUC (DNA:RNA)
RNA: B7 RNA with C25U, A26G, A27U, U31C
DNA 1: CAATCTGAATTCCGGTCTCCC
DNA 2: TGGTGGCTACGACGGGATT
B29: AACAGGU (DNA:RNA)
RNA: B1 RNA with U26A, U29G, C30G, G31U
DNA 1: CAATCTGAATTCCGGTCTCCC
DNA 2: TGGTGGCTACGACGGGATT
B30: GUACAGG (DNA:RNA)
RNA: B1 RNA with A25G, C27A, A28C, U29A, C30G
DNA 1: CAATCTGAATTCCGGTCTCCC
DNA 2: TGGTGGCTACGACGGGATT
B31: ACUUCGC (DNA:RNA)
RNA: B1 RNA with U26C, C27U, A28U, U29C, C30G, G31C
DNA 1: CAATCTGAATTCCGGTCTCCC
DNA 2: TGGTGGCTACGACGGGATT

Positions count from the first letter of the chain named. Some of the results follow.

The experiment concerns the target T1, RBFOX1 RRM. Kind of experiment: EMSA; HiTS-Eq, 1 nM pool, 10 min; buffer printed only for the single-RNA assays: 10 mM Tris pH 7.5, 150 mM NaCl, 3.4 mM EDTA, 0.001% NP-40, 30 C. To be noted: tags: His6 N-terminal (pET28a); label: 5' 32P. In a few lines: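 Purified RbFox RRM, wild type or mutant, was incubated for 10 min in 50 µL with 1 nM of a 5′-radiolabelled RNA pool carrying 7 randomized nucleotides, whose flanks were annealed to DNA oligonucleotides, over a series of increasing protein concentrations. Unbound RNA was resolved on 8% native PAGE, cut out, reverse-transcribed, barcoded by PCR and sequenced on an Illumina HiSeq 2500. Relative association constants were derived from changes in read counts for each RNA species versus the control reaction and normalised to the cognate motif.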
Background: A gel shift assay detects complexes by their altered migration in electrophoresis.
On to B1, for which the binding signal was 0.00368 KA relative to UGCAUGU. On to B2, for which the binding signal was 0.00196 KA relative to UGCAUGU.

With B3, the binding signal is 0.0272 KA relative to UGCAUGU.

Consider B4, for which the binding signal was 0.0045 KA relative to UGCAUGU. Next, B5: 0.000782 KA relative to UGCAUGU; B6: 0.016 KA relative to UGCAUGU. Under B7 stands 0.00782 KA relative to UGCAUGU; under B8, 0.00703 KA relative to UGCAUGU; under B9, 0.0139 KA relative to UGCAUGU. As for B10, the binding signal was 0.00686 KA relative to UGCAUGU. B11: the binding signal was 0.006 KA relative to UGCAUGU. As to B12, the binding signal is 0.0167 KA relative to UGCAUGU. For B13, the binding signal is 0.00683 KA relative to UGCAUGU.

Turning to B14, the binding signal is 0.0471 KA relative to UGCAUGU. Take B15: the binding signal is 0.00628 KA relative to UGCAUGU.

For B16, the binding signal was 0.00687 KA relative to UGCAUGU.

In the case of B17, the binding signal is 0.0112 KA relative to UGCAUGU. Take B18: the binding signal is 0.00883 KA relative to UGCAUGU. Turning to B19, the binding signal was 0.0386 KA relative to UGCAUGU. Under B20 stands 0.00374 KA relative to UGCAUGU.

As for B21, the binding signal was 0.0133 KA relative to UGCAUGU. With B22, the binding signal is 0.00209 KA relative to UGCAUGU. Under B23 stands 0.0133 KA relative to UGCAUGU; under B24, 0.0101 KA relative to UGCAUGU.

Take B25: the binding signal is 0.0209 KA relative to UGCAUGU. As to B26, the binding signal is 0.0234 KA relative to UGCAUGU. Under B27 stands 0.0124 KA relative to UGCAUGU; under B28, 0.0242 KA relative to UGCAUGU; under B29, 0.00491 KA relative to UGCAUGU. Next, B30: 0.011 KA relative to UGCAUGU; B31: 0.00595 KA relative to UGCAUGU.

Source of the values: paper PMC9911399, “Two distinct binding modes provide the RNA-binding protein RbFox with extraordinary sequence specificity”.
